This is one part of the list. These are further read-outs of the screen, such as a control signal, another cell line or another target. No call is given for them.
What was measured:
Assay in all cases: Primary Screen for Target Class Profiling of Small Molecule Inhibitors of Methyltransferases
[1] = molecular target: Glycine N-methyltransferase (Homo sapiens) (UniProt Q14749); conditions: purified enzyme, MTase-Glo SAH luminescence; measured here: GNMT inhibition; at 40 µM; stronger effect = lower value
Procedure, shortened: (§1)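 Each enzyme was assayed with SAM and its substrate. SAH formation detected by MTase-Glo luminescence; single-point 40 uM screen[…].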

[2] = molecular target: Guanidinoacetate N-methyltransferase (Homo sapiens) (UniProt Q14353); conditions: purified enzyme, MTase-Glo SAH luminescence; measured here: GAMT inhibition; at 40 µM; stronger effect = lower value
Procedure, shortened: as §1

[3] = molecular target: Histamine N-methyltransferase (Homo sapiens) (UniProt P50135); conditions: purified enzyme, MTase-Glo SAH luminescence; measured here: HNMT inhibition; at 40 µM; stronger effect = lower value
Procedure, shortened: as §1

[4] = molecular target: Nicotinamide N-methyltransferase (Homo sapiens) (UniProt P40261); conditions: purified enzyme, MTase-Glo SAH luminescence; measured here: NNMT inhibition; at 40 µM; stronger effect = lower value
Procedure, shortened: as §1

[5] = molecular target: Phenylethanolamine N-methyltransferase (Homo sapiens) (UniProt P11086); conditions: purified enzyme, MTase-Glo SAH luminescence; measured here: PNMT inhibition; at 40 µM; stronger effect = lower value
Procedure, shortened: as §1
% is scaled to controls: 0 for no effect and ±100 for the full control effect.

Structure (SMILES): COCC1CN(C)CC12CCN(C(=O)c1cc3ccccc3[nH]1)CC2 (stereo not given)
- activity change, negative = inhibition [1]: -5.47%
- activity change, negative = inhibition [2]: 1.93%
- activity change, negative = inhibition [3]: -17.7%
- activity change, negative = inhibition [4]: -6.83%
- activity change, negative = inhibition [5]: 10%

Structure (SMILES): O=S(=O)(c1ccc(F)cc1)N1CCC(n2cnnc2-c2ccccc2)CC1
- activity change, negative = inhibition [1]: 1.48%
- activity change, negative = inhibition [2]: 0%
- activity change, negative = inhibition [3]: 13%
- activity change, negative = inhibition [4]: 4.49%
- activity change, negative = inhibition [5]: 5.88%

Structure (SMILES): COCC[C@]1(O)CCN(C(=O)CCCc2ccccc2)C[C@H]1C
- activity change, negative = inhibition [1]: -1.13%
- activity change, negative = inhibition [2]: 1.84%
- activity change, negative = inhibition [3]: 1.01%
- activity change, negative = inhibition [4]: 5.12%
- activity change, negative = inhibition [5]: 12%

Structure (SMILES): Nc1cccc(CNC(=O)c2ccc(Oc3ccc(OCc4cccc(F)c4)cc3)nc2)c1
- activity change, negative = inhibition [1]: -0.923%
- activity change, negative = inhibition [2]: -14.8%
- activity change, negative = inhibition [3]: -2.25%
- activity change, negative = inhibition [4]: -32.5%
- activity change, negative = inhibition [5]: -15%

Structure (SMILES): Cc1cccc(N2C(=O)c3cc4sccc4n3CC2(C)C(=O)NC2CCCC(C)C2C)c1C (stereo not given)
- activity change, negative = inhibition [1]: 0.824%
- activity change, negative = inhibition [2]: -6.7%
- activity change, negative = inhibition [3]: 2.99%
- activity change, negative = inhibition [4]: 3%
- activity change, negative = inhibition [5]: 1.41%

Structure (SMILES): CC1OC(OC2CCC3(C)C(CCC4(C)C3C=CC35OCC6(CCC(C)(C)CC63)CCC45C)C2(C)CO)C(OC2OC(CO)C(O)C(O)C2O)C(O)C1OC1OC(CO)C(O)C(O)C1O (stereo not given)
- activity change, negative = inhibition [1]: 2.26%
- activity change, negative = inhibition [2]: 4.27%
- activity change, negative = inhibition [3]: 5.71%
- activity change, negative = inhibition [4]: -4.93%
- activity change, negative = inhibition [5]: 1.52%

Structure (SMILES): CCc1nc2c(=O)n(CC(=O)NCc3ccco3)nc(C)c2s1
- activity change, negative = inhibition [1]: -3.37%
- activity change, negative = inhibition [2]: -5.38%
- activity change, negative = inhibition [3]: -1.08%
- activity change, negative = inhibition [4]: -3.24%
- activity change, negative = inhibition [5]: -3.29%

Structure (SMILES): CC(=O)Nc1c2n(c3ccc(F)cc13)CC(C)(C(=O)NC1CCCC1)N(C1CCCCC1)C2=O (stereo not given)
- activity change, negative = inhibition [1]: -4.18%
- activity change, negative = inhibition [2]: 0%
- activity change, negative = inhibition [3]: 2.02%
- activity change, negative = inhibition [4]: -12%
- activity change, negative = inhibition [5]: -2.18%

Structure (SMILES): COc1cccc(-c2ccc(C(=O)NCCNC(=O)Cc3ccc(F)cc3)cc2)c1
- activity change, negative = inhibition [1]: -6.18%
- activity change, negative = inhibition [2]: -4.75%
- activity change, negative = inhibition [3]: -3.36%
- activity change, negative = inhibition [4]: -8.44%
- activity change, negative = inhibition [5]: -24.3%

Structure (SMILES): CCNC(=O)[C@@H]1C[C@H](NC(C)=O)CN1C1CCN(c2ccc(C)cc2)CC1
- activity change, negative = inhibition [1]: -10.2%
- activity change, negative = inhibition [2]: -8.29%
- activity change, negative = inhibition [3]: -5.9%
- activity change, negative = inhibition [4]: -12.2%
- activity change, negative = inhibition [5]: -2.17%

Structure (SMILES): Cc1ccc([N+](=O)[O-])cc1S(=O)(=O)N(C)/N=C/c1cnc2ccc(Br)cn12
- activity change, negative = inhibition [1]: -16.6%
- activity change, negative = inhibition [2]: -9.4%
- activity change, negative = inhibition [3]: -9.32%
- activity change, negative = inhibition [4]: -62.8%
- activity change, negative = inhibition [5]: -15.7%

Structure (SMILES): CC1(C)C[C@H](NC2CCC2)[C@@]2(CCC(=O)NCc3cccnc3)CC[C@](C)(O)C[C@@H]12
- activity change, negative = inhibition [1]: -0.706%
- activity change, negative = inhibition [2]: -1.75%
- activity change, negative = inhibition [3]: -11.3%
- activity change, negative = inhibition [4]: -5.69%
- activity change, negative = inhibition [5]: -2.87%

Structure (SMILES): CC(C)CCNC(=O)C1(C)Cn2nc(C(=O)NCc3ccccc3F)cc2C(=O)N1C (stereo not given)
- activity change, negative = inhibition [1]: 1.04%
- activity change, negative = inhibition [2]: 4.36%
- activity change, negative = inhibition [3]: 4.24%
- activity change, negative = inhibition [4]: 2.8%
- activity change, negative = inhibition [5]: 0.396%

Structure (SMILES): CCN1CCN(C(=O)c2cc(-c3ccccc3)cn2C)CC1
- activity change, negative = inhibition [1]: -7.16%
- activity change, negative = inhibition [2]: -8.95%
- activity change, negative = inhibition [3]: -4.64%
- activity change, negative = inhibition [4]: -11.7%
- activity change, negative = inhibition [5]: -6.82%

Structure (SMILES): CCOCCCNC(=O)C1c2c(n(C)c3ccccc23)SCC(=O)N1CCc1ccsc1 (stereo not given)
- activity change, negative = inhibition [1]: 4%
- activity change, negative = inhibition [2]: 1.52%
- activity change, negative = inhibition [3]: -3.73%
- activity change, negative = inhibition [4]: -0.57%
- activity change, negative = inhibition [5]: 2.04%

Structure (SMILES): C=C1C(=O)OC2/C=C(\CO)CC/C=C(\C=O)C(OC)C(OC(=O)C(C)CC)C12 (stereo not given)
- activity change, negative = inhibition [1]: 3.71%
- activity change, negative = inhibition [2]: 7.72%
- activity change, negative = inhibition [3]: 3.03%
- activity change, negative = inhibition [4]: -4.72%
- activity change, negative = inhibition [5]: 6.48%

Reference: PubChem BioAssay AID1745853 (National Center for Advancing Translational Sciences (NCATS), 2022)
